# Reference: publication PMC4336329 (PLoS ONE, 2015)
# Hit rate of the full screen: of about 310,000 compounds, about 14,000 (4.5%) showed an effect of 50% or more. Effects have a minus sign here. Some of the results follow.
# Target: human ether-à-go-go-related gene (hERG) potassium channel (human, UniProt Q12809)
# Assay: primary screen, population patch clamp on CHO cells stably expressing hERG
# 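Further: peak tail current of the secondary pulse compared with the same well before compound.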
# human ether-à-go-go-related gene (hERG) potassium channel, sequence (Q12809 whole entry, looked up): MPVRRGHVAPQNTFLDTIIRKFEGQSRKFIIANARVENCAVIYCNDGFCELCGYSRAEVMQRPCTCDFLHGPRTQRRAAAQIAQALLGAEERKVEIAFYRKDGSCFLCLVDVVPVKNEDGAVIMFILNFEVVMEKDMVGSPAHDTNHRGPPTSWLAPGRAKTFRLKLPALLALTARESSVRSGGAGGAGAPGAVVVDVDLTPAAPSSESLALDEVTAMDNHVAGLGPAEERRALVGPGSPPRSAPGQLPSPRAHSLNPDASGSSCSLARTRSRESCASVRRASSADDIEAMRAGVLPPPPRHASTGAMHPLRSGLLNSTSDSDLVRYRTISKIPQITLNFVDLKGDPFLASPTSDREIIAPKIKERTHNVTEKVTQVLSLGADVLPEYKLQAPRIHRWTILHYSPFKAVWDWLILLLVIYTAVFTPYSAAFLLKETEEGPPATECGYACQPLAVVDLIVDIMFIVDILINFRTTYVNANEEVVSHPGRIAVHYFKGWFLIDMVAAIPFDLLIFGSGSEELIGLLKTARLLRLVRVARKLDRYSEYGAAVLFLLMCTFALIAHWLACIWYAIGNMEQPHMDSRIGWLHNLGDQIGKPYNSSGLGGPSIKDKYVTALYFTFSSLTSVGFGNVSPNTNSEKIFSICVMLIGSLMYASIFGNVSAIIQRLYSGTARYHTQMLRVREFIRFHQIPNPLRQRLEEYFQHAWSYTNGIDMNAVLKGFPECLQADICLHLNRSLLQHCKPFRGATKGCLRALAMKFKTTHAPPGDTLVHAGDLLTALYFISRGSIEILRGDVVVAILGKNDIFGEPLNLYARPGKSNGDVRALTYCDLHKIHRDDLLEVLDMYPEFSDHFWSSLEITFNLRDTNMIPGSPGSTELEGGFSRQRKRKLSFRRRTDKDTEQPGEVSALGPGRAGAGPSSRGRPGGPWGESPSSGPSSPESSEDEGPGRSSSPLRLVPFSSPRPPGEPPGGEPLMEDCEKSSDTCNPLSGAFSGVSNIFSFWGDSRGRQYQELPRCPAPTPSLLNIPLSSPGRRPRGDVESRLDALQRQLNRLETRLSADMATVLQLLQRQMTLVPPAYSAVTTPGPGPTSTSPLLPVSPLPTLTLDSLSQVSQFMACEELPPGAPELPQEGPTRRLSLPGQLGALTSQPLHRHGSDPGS
row,SMILES,"hERG current change (%, negative = inhibition) at 10uM [%]"
1,COc1ccc(-c2cc(C(=O)N3CCN(Cc4ccc5c(c4)OCO5)CC3)on2)cc1OC,2.8
2,CCCN(CC(=O)Nc1ccccc1C)C(=O)COC(=O)CSc1ccc([N+](=O)[O-])cc1,-43.3
3,CC(C)c1ccc(NC(=O)C(c2ccccc2)N2CCC3(CC2)OCCO3)cc1 (centres unmarked),-43.3
4,CC(=O)c1cccc(S(=O)(=O)N2CCCC(c3nc4c(nnn4Cc4ccc(C)cc4)c(=O)[nH]3)C2)c1 (centres unmarked),15.1
5,COCCNC(=O)Cn1cc(S(=O)(=O)N2CCN(c3ccccc3F)CC2)c2ccccc2c1=O,-2.76
6,NC(=O)C1CCN(C(=O)C23CC4CC(CC(C4)C2)C3)CC1,10.5
7,CCc1ccc(C(C)NC(=S)NCc2ccc(F)cc2)cc1 (centres unmarked),12.4
8,O=C1OC(Oc2ccccc2)(c2ccccc2)c2ccccc21 (centres unmarked),-16.2
9,Cc1nnc(SCCN2CCOCC2)n1-c1cccc(Cl)c1.O=C(O)C(=O)O,-4.95
10,O=C(Nc1nc(-c2cccs2)c(C(=O)C(F)(F)F)s1)c1ccccc1,-2.72
11,CC(C)(C)OC(=O)N[C@@H](Cc1ccccc1)C(=O)N[C@@H](CO)[C@H](O)[C@@H]1C[C@@H]1C(=O)N1CCCC1,22.1
12,C=CCNC(=O)C1CCC(=O)N1S(=O)(=O)c1ccc(C)cc1 (centres unmarked),20.5
13,CCc1ccc(-c2nc(CSCC(=O)NCCCN3CCCC3=O)c(C)o2)cc1,-25.4
14,CC(=O)NN1C(=O)c2ccc(Oc3ccc([N+](=O)[O-])cc3)cc2C1=O,-13
15,CCOC(=O)N/N=C\c1sccc1C,-2.3
16,Cc1ccc(C(=O)N/N=C\c2cc(Br)c(Br)o2)cn1,7.04
17,CCn1c2ccc(C)cc2c2nnc(NN)nc21,-22.6
18,O=C1CSC(c2ccc(Cl)c(Cl)c2)N1c1nccs1 (centres unmarked),-1.93
19,COc1ccc(N/N=C/c2c(C(=O)O)ccc3ccccc23)cc1,-4.8
20,O=C(CCNC(=O)OCc1ccccc1)NC1CCCCC1,8.43
21,O=S(=O)([N-]c1nc2ccccc2nc1-[n+]1ccccc1)c1ccccc1,11.5
22,O=C(CCNC(=O)c1ccccc1)Nc1nc2ccccc2s1,-3.99

row,SMILES,"hERG current change (%, negative = inhibition) at 10uM [%]"
1,COc1ccc(OCc2nnc(SCC(N)=O)n2-c2ccccc2OC)cc1,-1.78
2,Cl.O=C(O)c1ccc(Nc2ncnc3scc(-c4ccccc4)c23)cc1,20.4
3,FC(F)(F)c1cc(-c2ccco2)nc(NCc2cccnc2)n1,1.09
4,COc1ccc(CN(C)C2CCN(C)CC2)cc1OC,21.8
5,O=C(CC1CCCCC1)NCC1CCCO1 (centres unmarked),7.02
6,Cc1ccc(C(=O)N2CCOCC2)cc1Cl,2.91
7,Cc1cccc(C)c1NC(=O)CNC(=O)c1cccnc1,19.7
8,O=C(N/N=C/c1ccc2c(c1)OCO2)c1cccc2ccccc12,16
9,CCC(=O)N1CCC(C(N)=O)(N2CCCCC2)CC1,5.69
10,CC(=O)N(CCC(Cc1ccccc1)c1ccc2c(c1)OCO2)Cc1ccc(Cl)cc1 (centres unmarked),-17.9
11,O=[N+]([O-])c1ccccc1/C=C/C=N/n1c(-c2ccco2)n[nH]c1=S,8.81
12,Cc1ccc(Nc2c(-c3ccc(N4CCOCC4)cc3)nc3ncccn23)cc1C,7.71
13,Cc1ccc(S(=O)(=O)N(C)C)cc1NC(=S)NC(=O)C12CC3CC(CC(C3)C1)C2,10.2
14,COc1cccc(CNC(=O)c2cc(S(=O)(=O)N3CCCCC3)c[nH]2)c1,21.2
15,Cc1c(Cl)cccc1NC(=O)CCC(=O)c1cccs1,10
16,COc1ccc(N2C(=O)CC(Sc3nc(C)cc(C)n3)C2=O)cc1OC (centres unmarked),11.7
17,O=C(CSc1nccc(=O)[nH]1)Nc1ccc(N2CCOCC2)cc1,-1.11
18,CC(=O)C1=NN(c2ccccc2)C(c2ccc3c(c2)OCO3)N1c1ccccc1 (centres unmarked),2.61
19,Nc1nc(C(F)(F)F)cc(=O)n1N,3.01
20,COC(=O)c1ccc(NC(=O)CN2CCN(c3cccc(Cl)c3)CC2)cc1,-0.592
21,O=C(NCc1ccc2c(c1)OCO2)C1CC(=O)N(CCc2ccc(F)cc2)C1 (centres unmarked),-43.1
22,CCCCn1c(N)c(N(CC(C)C)C(=O)c2ccc(-c3ccc([N+](=O)[O-])cc3)o2)c(=O)[nH]c1=O,-16.3
